The record followed here is the RNAGym collection of RNA variant scans (doi:10.7554/elife.90254).

B1: OR4K15 (parent)
chain: GUUAACGGUCAUAGGCCAUGGAAACUAGGAGCACCAUUUCGCUGCCAGUGAAGAAAUGAACAAAGAAAAUCUGGGCCAGGCAGGCAUCAAAAGAAAUAGUCUUGCGCUCAACCAGAAAGUCUGUAAUCAUUUUAAGGGUA

The source gives no read counts; variants with many changes may rest on few reads.

The variants in this series derive from B1. Nature of the series: self-cleavage, relative activity (ratio to wild type); higher = more cleavage; in vitro, sequencing; the parent is a self-cleaving ribozyme.
Turning to GUAAACGGUCAUAGGCCAUGAAAACUAGGAGCACCAUUUCGCUGCCAGUGAAGAAAUGAACAAAGAAAAUCCGGGCCUGGCAGGCAUCAAAAGAAAUAGUCUUGCGCUCAACCAGAAAGUCUGUAGUCAUUUUAAGGGUA, the self-cleavage came to 0.19. Consider GUAAACGGUCAUAGGCCAUGGAAACUAGGAGCACCAUUUCGCUGCCAGUGAAGAAAUGAACAAAGAAGAUCUGGGCCAGGCAGGCAUCAAAAGAAAUAGUCUUGCGCUCAACCAGAAAGUCCGUAAUCAUUUUAAGGGUA, for which the self-cleavage was 1.28. Under GUAAACGGUCAUAGGCCAUGGAAACUAGGAGCACCAUUUCGCUGCCAGUGAAGAAAUGAACAAAGAAAAUCUGGGCCAGGCAGGCAUCAAAAGGAAUAGUCUUGCGCUCAACCAGAAAGUCGGUAAUCAUUUUAAGGGUA stands 2.71. Next, GUAAACGGCCAUAGGCCACGGAAACUAGGAGCACCAUUUCGCUGCCAGUGAAGAAAUGAACAAAGAAAAUCUGGGCCAGGCAGGCAUCAAAAGAAAUAGUCUUGCGCUCAACCAGAAAGUCCGUAAUCAUUUUAAGGGUA: 0.36; GGUAACGGUCACAGGCCAUGGAAACUAGGAGCACCAUUUCGCUGCCAGUGAAGAAAUGAACAAAGAAGAUCAGGGCCAGGCAGGCAUCAAAAGAAAUAGUCUUGCGCUCAACCAGAAAGUCUGUAAUCAUUUUAAGGGUA: 0.26; GUAAACGGUCAUAGGCCAUGGAAACUAGGAGCACCAUUUCGCUGCCAGUGAAGAAAUGAACAAAGAAAAUCUGGGCCAGGCAGGCAUCAAAAGAAAUAGUCUCGCGCUCAACCAGAAAGCCUGUAAUCAUUUUAAGGGUA: 0.14. Next, GUAAACGGUCAUAGGCCAUGGAAACUAGGAGCACCAUUCCGCUGCCAGUGAAGAAAUGAACAAAGAAAAUCUGGGCCAGGCAGGCAUCAAAAGAAGUAGUCUCGCGCUCAACCAGAAAGUCUGUAAUCAUUUUAAGGGUA: 1.56; GGUAACGGUCAUAGGCCAUGGAAACUAGGAGCACCAUUUCGCCGCCAGUGAAGAAAUGAACGAAGAAAAUCUGGGCCAGGCAGGCGUCAAAAGAAAUAGUCUUGCGCUCAACCAGAAAGUCUGUAACCGUUUUAAGGGUA: 0.15; GUAAACGGCCAUAGGCCAUGGAAACUAGGAGCACCAUUUCGCUGCCAGUGAAGAGAUGAACAAAGAAAAUCUGGGCCAGGCAGGCAUCAAAAGAAAUAGUCUUGCGCUCAACCAGAAAGUCUGUAAUCAUUUUAAGGGUA: 1.33. In the case of GUAAACGGUCAUAGGCCAUGGAAACUAGGAGCACCAUUUCGCUGCCAGUGUAGAAAUGAACAAAGAAAAUCUGGGCCGGGCAGGCAUCAAAAGAAAUAGUCUUGCGCUCAACCAGAAAGUCUGUAACCAUUUUAAGGGUA, the self-cleavage was found to be 0.3.

On to GGUAACGGUCAUAGCCCAUGGAAACUAGGGGCACCAUUUCGCUGCCAGUGAAGAAAUGAACAAAGAAAAUCUGGGCCAGGCAGGCAUCAAAAGAGAUAGUCUUGCGCUCAACCAGAAAGUCUGUAAUCAUUUUAAGGGUA, for which the self-cleavage was determined as 1.49. Take GGUAACGGUCAUAGGCCAUGGAAACUAGGAGCACCAUUUCGCUGCCAGUGAAGAAAUGAACAAGGAAAAUCUGGGCCAGGCAGGCAUCAAAAGAAAUAGUCUUGCGCUCAACCAGAAAGUCUGUAAUCAUUUUGAGGGUA: the self-cleavage is 0.89. Consider GUAAACGGUCAUAGGCCAUGGAAACUAGGAGCACCAUUUCGCUGCCAGUGAAGAAAUGAACAAAGAAAAUCUGGGCCAGGCAGGCAUCAAAAGAAAUAGUCUCGCGCUCAACCAGAAAGUCUGUAAUCAUUUUAUGGGUA, for which the self-cleavage was 1.06.

Turning to GUAAACGGUCAUAGGCCAUGGAAACUAGGAGCACCAUUUCGCUGCCAGUGAAGAAAUGAACAAAGAAAAUCCGGGCCAGGCAGGCAUCAAAAGAAAUAGUCUUGCGCUCAACCAGAGGGUCUGUAAUCAUUUUAAGGGUA, the self-cleavage is 0.17.

In the case of GGUAACGGACAUAGGCCAUGGAAACUAGGAGCACCAUUUCGCUGCCAGUGAAGAAAUGAACCAAGAAAAUCUGGGCCAGGCAGGCAUCAAAAGAAAUAGUCUUGCGCUCGACCAGAAAGUCUGUAAUCAUUUUAAGGGUA, the self-cleavage came to 0.37.

Regarding GGUAACGGUCAUAGGCCACGGAAACUAGGAGCACCAUUUCGCUGCCAGUGAAGAAAUGAACAAAGAAAAUCUGGGCCAGGCAGGCAUCAAAAGAGAUAGUCUUGCGCUCAACCAGAAAGUUUGUAAUCAUUUUAAGGGUA, the self-cleavage was 2.09. Under GUAAACGGUCAUAGGCCAUGGAAGCUAGGAGCACCAUUUCGCUGCCAGUGAAGAAAUGAACAAAGAAAAUCUGGGCCAGGCGGGCAUCAAAAGAAAUAGUCUUGCGCUCAACCAGAAAGUCUGUAAUCAUUUUAAGGGUA stands 0.68; under GUAAACGGUCAUUGGCCAUGGAACCUAGGAGCACCAUUUCGCUGCCAGUGAAGAAAUGAACAAAGAAAAUCUGGGCCAGGCAGGCAUCAAAAGAAAUAGUCUUGCGCUCAUCCAGAAAGUCUGUAACCAUUUUAAGGGUA, 0.08; under GUAAACGGCCAUGGGCCAUGGAAACUAGGAGCACCAUUUCGCUGCCAGUGUAGAAAUGAACAAAGAAAAUCUGGGCCAGGCAGGCAUCAAAAGAAAUAGUCUUGCGCUCAACCAGAAAGUCUGUAAUCAUUUUAAGGGUA, 1.05.

With GUAAACGGUCAUAGGCCAUGGAAACUAGGAGCACCAUCUCGCUGCCAGUGAAGAAAUGAACAAAGAAAAUCUGGGCCAGGCAGGCGUCAAAAGAAAUAGUCUUGCGCUCAACCAGAAAGUCUGUAAUCAUUUUAAGGGUA, the self-cleavage turned out to be 0.96.

On to GUAAACGGUCAUAGGCCAUGGAAACUGGGAGCACCAUUUCGCUGCCAGUGAAGAAAUGAACAAAGAAAAUCUGGGCCAGGCAGGCAUCAGAAGAAAUAGUCUUGCGCUCAACCAGAAAGUCUGUAAUCAUUUUAAGGGUA, for which the self-cleavage is 1.13.
